In the supplement of paper PMC3334620:
Whole data set: some 33,000 sequences, median “E-score (-0.5 to 0.5)” near -0.054, cut for the highest 2% near 0.35. The list shows a part of the results.

target: T1, Stb5 (UniProt P38699); assay: PBM E-score (8-mer binding enrichment) (E-score (-0.5 to 0.5)); higher = stronger / more preferred TF binding; most listed sequences are background and not binding sites; settings: protein concentration: 200 nM; construct: GST-full length
T1 sequence: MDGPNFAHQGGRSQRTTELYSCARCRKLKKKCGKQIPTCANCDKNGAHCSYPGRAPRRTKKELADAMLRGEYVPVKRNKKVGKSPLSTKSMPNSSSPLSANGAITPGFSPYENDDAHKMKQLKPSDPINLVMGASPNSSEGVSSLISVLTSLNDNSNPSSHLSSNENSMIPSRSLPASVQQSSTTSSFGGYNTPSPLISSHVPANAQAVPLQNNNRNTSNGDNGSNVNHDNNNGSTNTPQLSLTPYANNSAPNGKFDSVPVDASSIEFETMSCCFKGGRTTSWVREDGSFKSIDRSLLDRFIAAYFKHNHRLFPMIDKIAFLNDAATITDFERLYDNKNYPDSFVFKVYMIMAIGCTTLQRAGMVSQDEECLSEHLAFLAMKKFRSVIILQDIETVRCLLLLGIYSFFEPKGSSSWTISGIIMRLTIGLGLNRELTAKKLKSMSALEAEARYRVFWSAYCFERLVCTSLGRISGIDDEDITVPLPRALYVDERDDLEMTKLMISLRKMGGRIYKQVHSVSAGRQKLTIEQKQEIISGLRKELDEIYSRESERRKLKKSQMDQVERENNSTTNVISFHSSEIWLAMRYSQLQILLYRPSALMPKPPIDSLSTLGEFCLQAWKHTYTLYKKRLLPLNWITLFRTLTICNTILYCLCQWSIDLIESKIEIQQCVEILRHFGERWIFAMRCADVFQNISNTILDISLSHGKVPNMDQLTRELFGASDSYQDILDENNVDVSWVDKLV
How it was run: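 Universal all-10-mer Agilent arrays, fresh or stripped once, were converted to double-stranded form by primer extension. GST-tagged yeast transcription factors from PURExpress in vitro transcription/translation, full-length or DNA-binding domain only, were applied at about 100-200 nM and detected with fluorescent anti-GST. After masliner normalisation, the Universal PBM Analysis Suite scored each ungapped eight-base word together with its reverse complement by E-score.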

| Sequence | PBM E-score |
| --- | --- |
| GCGTGTTA | -0.146 |
| CCAAATTA | -0.15 |
| AAACCGAA | -0.0132 |
| CCCTAACG | 0.091 |
| CCACTTTA | -0.164 |
| CTGAGGTA | -0.0444 |
| ACACATAT | -0.163 |
| CACTAAGG | -0.09 |
| CAATGACC | 0.127 |
| GCGTGATA | 0.0637 |
| AATAGCCG | 0.271 |
| GCTATTGA | 0.168 |
| CATTGTTC | 0.0384 |
| AAAGTGCC | 0.15 |
| ACAGTGCA | -0.0527 |
| CACGGATA | 0.0963 |
| ACTTCATA | -0.166 |
| AGACAACG | 0.0363 |
| CGGATGAG | -0.135 |
| ACGGTAGA | 0.111 |
| AATTATAC | 0.213 |
| AAAAGAGA | -0.201 |
| CCTACACA | -0.2 |
| ACCCATCG | 0.1 |
| ATGAGCAG | -0.258 |

| Sequence | PBM E-score |
| --- | --- |
| ACTTTGCG | -0.133 |
| ACCATCCG | -0.0159 |
| TCAGCTGA | -0.186 |
| ATGCCGGG | 0.287 |
| GCATTAGC | -0.0138 |
| CGGTCGAA | 0.166 |
| ATTCTCCC | 0.0255 |
| GGACCTCC | 0.0561 |
| CAGTCTGA | -0.12 |
| ATCGCCTA | -0.0845 |
| GGGTACCA | -0.157 |
| ACAGAGTA | -0.147 |
| ATCCAGAA | -0.227 |
| AATAAGGC | -0.0871 |
| GAGAAATA | 0.139 |
| ATTAAGAA | 0.0289 |
| CGGATTGC | 0.014 |
| AGCGCAAC | 0.0937 |
| CACTTCAC | -0.098 |
| ATGTTCTG | -0.112 |
| CCATTCCG | -0.0472 |
| TCAAACAA | -0.00872 |
| CTTTGAAC | -0.0864 |
| AAGTCAAG | -0.195 |
| GGTATTGA | 0.117 |

| Sequence | PBM E-score |
| --- | --- |
| AATACACT | -0.287 |
| GCCTTTAC | 0.00064 |
| GGTCTATA | 0.00974 |
| AGTGCTTA | -0.124 |
| CTTGCCAC | -0.0929 |
| GTTGGGCA | -0.13 |
| AGTGGGCC | -0.237 |
| GTGTAAAA | 0.0796 |
| ATGCGGGA | 0.164 |
| CTCCTATC | 0.0831 |
| ATTTTAAA | 0.201 |
| AAGTAGGT | 0.00443 |
| CAGTCAGA | -0.149 |
| CCGTATAA | 0.307 |
| CCGGGGGC | 0.185 |
| ACAGAGCT | -0.138 |
| GACTATAC | 0.0897 |
| ACGTTTTA | -0.0802 |
| TACCTTAA | -0.0511 |
| ACAAATAG | 0.0815 |
| CCCGTTTA | 0.188 |
| CACCCCAA | -0.194 |
| AAATCGTT | -0.223 |
| CCAGGCAG | -0.297 |
| CCCTGCCA | -0.217 |

| Sequence | PBM E-score |
| --- | --- |
| GGGGCTCA | -0.11 |
| AAAAAGCG | 0.144 |
| ACCGACAA | 0.369 |
| GCTGTCGA | -0.079 |
| CCCTATCC | -0.177 |
| CACTTACA | -0.141 |
| AAAGAAAT | -0.118 |
| CATTTGAG | -0.0381 |
| CACTGCTG | -0.276 |
| ATTCCCCG | 0.32 |
| CGGGACCA | 0.279 |
| AATTTCAT | -0.231 |
| AAGTCCCA | -0.0453 |
| AATATTCA | -0.187 |
| CAACAGTA | -0.207 |
| AGTAGATC | 0.00147 |
| CTGAGTGA | 0.0556 |
| CAAGCTTG | -0.0941 |
| ATGCCCTG | -0.181 |
| GATGCGTA | -0.0988 |
| CAGTTCTC | -0.101 |
| AGAGGAAT | -0.295 |
| AAACCCCC | 0.263 |
| AGACTTTC | -0.0373 |
| CTATCTCA | -0.161 |

| Sequence | PBM E-score |
| --- | --- |
| ACATAATC | 0.0496 |
| ATGAGCCG | 0.0249 |
| AGAGTATA | 0.0611 |
| GAGTTCCC | -0.0023 |
| ACCTTCTG | 0.0258 |
| AAGACCTA | -0.0173 |
| ACAGCGCC | 0.254 |
| ACAGGTCA | -0.136 |
| CTCGGGTA | -0.061 |
| AATACGGG | 0.254 |
| CGCCCGTC | 0.248 |
| GTGTACTA | -0.186 |
| GTCGGAAA | 0.274 |
| GTAAGGTA | 0.00255 |
| GCGCCGCC | 0.331 |
| ATTCTACG | -0.0844 |
| ATCAATTA | -0.0352 |
| ACTTTCCG | -0.0837 |
| AGCAATAC | -0.0979 |
| AGGTGGCG | -0.092 |
| ACCTTGGG | -0.0415 |
| TGTGTGAA | -0.201 |
| TCTACAAA | -0.17 |
| ACTTGAGA | -0.106 |
| AATGTAGT | -0.128 |

| Sequence | PBM E-score |
| --- | --- |
| AACATGTA | -0.0625 |
| AATCTTAT | 0.0972 |
| GTTTTCGA | -0.115 |
| CACAAATC | 0.0762 |
| CATTGGTC | -0.129 |
| GGGGTGGA | 0.0436 |
| AACGAAAG | -0.136 |
| AAAGTTCC | 0.163 |
| TCATGAAA | 0.112 |
| GAGCCGGC | 0.308 |
| AGTTTATG | -0.0857 |
| CAGTTCGG | 0.206 |
| ATGTGTCG | -0.145 |
| CACCTCTC | -0.132 |
| CTAAGATA | -0.134 |
| CGTGAGCC | 0.00989 |
| ATCCTCCG | 0.233 |
| CTAGTAAC | -0.213 |
| GACAATAA | 0.0907 |
| CGACACTC | 0.144 |
| ATCGTCGC | -0.0423 |
| CAGCGCGG | 0.286 |
| ATTGATGG | -0.0545 |
| CGACGGAG | 0.339 |
| CACCGGTG | 0.408 |

| Sequence | PBM E-score |
| --- | --- |
| CCGTTCAC | 0.0154 |
| GAAGGTCA | -0.15 |
| CCTACGAA | -0.0721 |
| ACCTCCTC | -0.105 |
| CTTGTGTA | -0.265 |
| CCGAAAGA | 0.196 |
| CGCATCGC | -0.062 |
| CCCTTCTC | -0.0563 |
| GAATCTCC | 0.288 |
| GGACTTGA | 0.132 |
| CGGACGAA | 0.215 |
| ACGGGCCC | 0.253 |
| ATTAAACC | 0.108 |
| ATTCTTGG | -0.0109 |
| AGACCCCT | -0.373 |
| ATCAATGA | -0.134 |
| GGCCCACC | -0.0357 |
| CGATTCTC | -0.0524 |
| ACGTACTA | -0.237 |
| GAGGGGAA | -0.12 |
| CCTACTCC | -0.149 |
| GACCCGCA | 0.164 |
| GCGCTCCA | -0.0469 |
| ATCTATAG | -0.186 |
| ACATCAAG | -0.153 |

| Sequence | PBM E-score |
| --- | --- |
| CTGATCCA | -0.197 |
| CGCGCTCC | 0.0607 |
| AACTCCGG | 0.436 |
| GAGTGCTA | -0.191 |
| AGTTTGTC | -0.0395 |
| TGAACCAA | -0.321 |
| AAATCAAA | -0.0611 |
| ATCGCTAC | -0.0504 |
| AGTTACCG | 0.255 |
| ACGGTATG | 0.132 |
| CATATTCG | 0.0955 |
| GCGTATAA | 0.149 |
| GTAGACAA | -0.111 |
| AATATAGG | -0.0737 |
| CTGGCTCA | -0.15 |
| CGTGGGAC | -0.0112 |
| TCGAACAA | -0.12 |
| ACATCTGG | 0.141 |
| GAAGGAGC | -0.178 |
| GAATTGAC | -0.086 |
| CCAGGGCG | 0.139 |
| ATGCCTTG | -0.177 |
| CTCCACGA | 0.0441 |
| AAAGAGCG | 0.191 |
| AACAAGCC | -0.176 |

| Sequence | PBM E-score |
| --- | --- |
| GCCCCACA | -0.196 |
| GCGGGTCC | 0.103 |
| GCTATTCC | 0.069 |
| CGTCCTTA | -0.0806 |
| TCGGGGCA | 0.227 |
| TCATCGGA | 0.23 |
| CCAGAAGG | 0.00315 |
| GTGCTTAA | 0.0288 |
| CGCTAACC | 0.146 |
| TAGGATAA | -0.0737 |
| ATCGTCAC | 0.0193 |
| GACCTCCC | -0.0892 |
| ACATTTTC | 0.00225 |
| ATCCTAAA | 0.13 |
| GGACATGA | 0.113 |
| ACTGACAA | -0.16 |
| GCAAGTCA | -0.116 |
| ACAACTAA | -0.117 |
| ACCTAATA | -0.0293 |
